# Test results published in the supplement of paper PMC8728848.
# The list shows a part of the results.
# How the values were obtained:
# Test in all cases: glycan array binding signal (z-score within array); higher = stronger binding
# Settings in all cases: glycan notation: IUPAC condensed, linker removed
# [1] = target: Gal(b1-4)GlcNAc(b1-6)Gal(b1-4)GlcNAc
# In short: (§1)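 Arrays were curated from the Consortium for Functional Glycomics database, 3228 in total, and kept only where the protein sequence was available. Binding is expressed as a within-array Z-score. This score was averaged across arrays of the same protein sequence at different concentrations or buffers and across linkers, and negative values can be read as non-binding.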
# [2] = target: Gal(b1-4)GlcNAc(b1-6)GalNAc
# In short: as §1
# [3] = target: Gal(b1-4)GlcNAc(b1-6)[Gal(b1-3)]GalNAc
# In short: as §1
# [4] = target: Gal(b1-4)GlcNAc(b1-6)[Gal(b1-4)GlcNAc(b1-3)]GalNAc
# In short: as §1
# Gal(b1-4)GlcNAc6P = target: Gal(b1-4)GlcNAc6P
# In short: as §1
# Gal(b1-6)Gal = target: Gal(b1-6)Gal
# In short: as §1
# Gal3S(b1-3)GalNAc = target: Gal3S(b1-3)GalNAc
# In short: as §1
# Gal3S(b1-3)GlcNAc = target: Gal3S(b1-3)GlcNAc
# In short: as §1
# [5] = target: Gal3S(b1-3)[Fuc(a1-4)]GlcNAc
# In short: as §1
# Gal3S(b1-4)Glc = target: Gal3S(b1-4)Glc
# In short: as §1
# Gal3S(b1-4)Glc6S = target: Gal3S(b1-4)Glc6S
# In short: as §1
# Gal3S(b1-4)GlcNAc = target: Gal3S(b1-4)GlcNAc
# In short: as §1
# [6] = target: Gal3S(b1-4)[Fuc(a1-3)]Glc6S
# In short: as §1
# [7] = target: Gal3S(b1-4)[Fuc(a1-3)]GlcNAc
# In short: as §1
# [8] = target: Gal3S(b1-4)[Fuc(a1-3)]GlcNAc6S
# In short: as §1
# Gal3S4S(b1-4)GlcNAc = target: Gal3S4S(b1-4)GlcNAc
# In short: as §1
# Gal3S6S(b1-4)GlcNAc = target: Gal3S6S(b1-4)GlcNAc
# In short: as §1
# Gal3S6S(b1-4)GlcNAc6S = target: Gal3S6S(b1-4)GlcNAc6S
# In short: as §1
# Gal4S(b1-4)GlcNAc = target: Gal4S(b1-4)GlcNAc
# In short: as §1
# Gal4S6S(b1-4)GlcNAc = target: Gal4S6S(b1-4)GlcNAc
# In short: as §1
# Gal6P(b1-4)GlcNAc = target: Gal6P(b1-4)GlcNAc
# In short: as §1
# Gal6S(b1-3)GlcNAc = target: Gal6S(b1-3)GlcNAc
# In short: as §1
# Gal6S(b1-3)GlcNAc6S = target: Gal6S(b1-3)GlcNAc6S
# In short: as §1
# Gal6S(b1-4)Glc = target: Gal6S(b1-4)Glc
# In short: as §1
# Gal6S(b1-4)Glc6S = target: Gal6S(b1-4)Glc6S
# In short: as §1
# Gal6S(b1-4)GlcNAc = target: Gal6S(b1-4)GlcNAc
# In short: as §1
# Gal6S(b1-4)GlcNAc6S = target: Gal6S(b1-4)GlcNAc6S
# In short: as §1
# GalNAc(a1-3)Gal = target: GalNAc(a1-3)Gal
# In short: as §1
# GalNAc(a1-3)GalNAc = target: GalNAc(a1-3)GalNAc
# In short: as §1
# [9] = target: GalNAc(a1-3)GalNAc(b1-3)Gal(a1-4)Gal(b1-4)Glc
# In short: as §1
# [10] = target: GalNAc(a1-3)GalNAc(b1-3)Gal(a1-4)Gal(b1-4)GlcNAc
# In short: as §1
# GalNAc(b1-3)Gal = target: GalNAc(b1-3)Gal
# In short: as §1
# [11] = target: GalNAc(b1-3)Gal(a1-4)Gal(b1-4)GlcNAc
# In short: as §1
# [12] = target: GalNAc(b1-3)Gal(a1-4)Gal(b1-4)GlcNAc(b1-3)Gal(b1-4)Glc
# In short: as §1
# [13] = target: GalNAc(b1-3)Gal(a1-6)Gal(b1-4)Glc
# In short: as §1
# GalNAc(b1-3)GalNAc = target: GalNAc(b1-3)GalNAc
# In short: as §1
# GalNAc(b1-3)GlcNAc = target: GalNAc(b1-3)GlcNAc
# In short: as §1
# GalNAc(b1-4)Gal(b1-4)Glc = target: GalNAc(b1-4)Gal(b1-4)Glc
# In short: as §1
binder,measurement,setting,value
"Sebin2 (Coprinopsis cinerea), A8PE78 (protein) MTTPFYAYCHNVQDDNTWRLGLVFANRSTADEWWRAISEATSSIPITKSITRVTPQYYTHDIRVWNMYNFFVDGNIKSISDKFRGRLFITLEYDRSGRGVSVFPPLHIVDHVSGNWYYIRSKTAPHLFWFYDETRNAIYASKEKRTRFKVSIRNPSPQTPKDAIMINSDDVVIHIKESLYVGVDSYLGHIIPTRAYRTFKFGELEGGAIAGIEVAENAEERCSSTFDGASLYFVGPDSSSPGEPWELV",glycan array binding signal (z-score),[1],-0.109
same,glycan array binding signal (z-score),[2],0.266
same,glycan array binding signal (z-score),[3],-0.329
same,glycan array binding signal (z-score),[4],-0.289
same,glycan array binding signal (z-score),Gal(b1-4)GlcNAc6P,0.129
same,glycan array binding signal (z-score),Gal(b1-6)Gal,0.35
same,glycan array binding signal (z-score),Gal3S(b1-3)GalNAc,-0.205
same,glycan array binding signal (z-score),Gal3S(b1-3)GlcNAc,-0.368
same,glycan array binding signal (z-score),[5],-0.168
same,glycan array binding signal (z-score),Gal3S(b1-4)Glc,0.2
same,glycan array binding signal (z-score),Gal3S(b1-4)Glc6S,0.515
same,glycan array binding signal (z-score),Gal3S(b1-4)GlcNAc,-0.453
same,glycan array binding signal (z-score),[6],0.126
same,glycan array binding signal (z-score),[7],-0.023
same,glycan array binding signal (z-score),[8],0.191
same,glycan array binding signal (z-score),Gal3S4S(b1-4)GlcNAc,-0.183
same,glycan array binding signal (z-score),Gal3S6S(b1-4)GlcNAc,0.109
same,glycan array binding signal (z-score),Gal3S6S(b1-4)GlcNAc6S,0.762
same,glycan array binding signal (z-score),Gal4S(b1-4)GlcNAc,-0.607
same,glycan array binding signal (z-score),Gal4S6S(b1-4)GlcNAc,-0.28
same,glycan array binding signal (z-score),Gal6P(b1-4)GlcNAc,-0.238
same,glycan array binding signal (z-score),Gal6S(b1-3)GlcNAc,0.18
same,glycan array binding signal (z-score),Gal6S(b1-3)GlcNAc6S,0.223
same,glycan array binding signal (z-score),Gal6S(b1-4)Glc,-0.355
same,glycan array binding signal (z-score),Gal6S(b1-4)Glc6S,0.31
same,glycan array binding signal (z-score),Gal6S(b1-4)GlcNAc,-0.138
same,glycan array binding signal (z-score),Gal6S(b1-4)GlcNAc6S,0.392
same,glycan array binding signal (z-score),GalNAc(a1-3)Gal,0.179
same,glycan array binding signal (z-score),GalNAc(a1-3)GalNAc,-0.007
same,glycan array binding signal (z-score),[9],-0.175
same,glycan array binding signal (z-score),[10],-0.344
same,glycan array binding signal (z-score),GalNAc(b1-3)Gal,-0.244
same,glycan array binding signal (z-score),[11],-0.059
same,glycan array binding signal (z-score),[12],-0.013
same,glycan array binding signal (z-score),[13],-0.623
same,glycan array binding signal (z-score),GalNAc(b1-3)GalNAc,-0.129
same,glycan array binding signal (z-score),GalNAc(b1-3)GlcNAc,-0.347
same,glycan array binding signal (z-score),GalNAc(b1-4)Gal(b1-4)Glc,0.167
